# Experimental data published in PMC12136788.
# This is one part of the list.
# T1: UNK ZnF1-3 (human, UniProt Q9C0B0 31-174)
# T1 sequence: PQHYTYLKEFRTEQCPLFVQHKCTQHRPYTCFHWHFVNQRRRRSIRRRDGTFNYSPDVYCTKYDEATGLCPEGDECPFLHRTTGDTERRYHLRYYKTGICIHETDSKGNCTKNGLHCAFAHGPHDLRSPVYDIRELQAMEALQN
# B1: 71851958_71852819_2353_CDS_ENSG00000119139_ENST00000377245|human|control|control (ssRNA)
# RNA: GGGAGUUCUACAGUCCGACGAUCUAAGACCACAGGUCUCUUGAAACCAGCUUCUCGCAGCAAAACCCUCUCAUAAGCUGGGAACUUGGUGCUGACAGACACAACAGCUGUGAGGUCUUCCCGACUUUUCCUCAGGUUCUUCUUCAACAGAGGAUUGAGCAUCA
# B2: chr2:155479361:155479362:-_ENSMUSG00000038324_ENSMUST00000041059|mus_mus|motif|central (ssRNA)
# RNA: GGGAGUUCUACAGUCCGACGAUCCCACUCCUCCAGUUCUUGAAGGAAGCUGGCUGUGCCCGUUGACUCUGACACUUUCCGGGUUGCCAGUUUGCAAAGCCGUUCCACAAAGCCAGGGAUGCUGAGAAGAGCAGCUUGGUUGAUCAACAGAGGAUUGAGCAUCA
# B3: chr7:155493584:155493585:+_ENSG00000184863_ENST00000401878|hu_hu|FALSE|FALSE (ssRNA)
# RNA: GGGAGUUCUACAGUCCGACGAUCUGAAAGCUCCAAAGUUUCUGGAAUGUUCCUUCUCUCUCUAGUUACAUCUGAGAGCCUAAUAAUUGUUCCUUCUUUCCUUUCAGUUUUGAAACGUAAUCGUCCAGAUUCUUCAUCAUCUUCCAACAGAGGAUUGAGCAUCA
# B4: chr11:100452861:100452862:-_ENSMUSG00000014195_ENSMUST00000014339|mus_hu|FALSE|FALSE (ssRNA)
# RNA: GGGAGUUCUACAGUCCGACGAUCCCAUUCGUAGAAUGUCACUAGCCACAGACUGUGCUUCUGGAUAACGACCCAGCAUUGCUAAACAUUCUGCCUUGAGGAUUUUGAAGCGAUGGCAGGCAGGGGCAAAUUCUAGGGCACGGUCAACAGAGGAUUGAGCAUCA
# B5: chr1:39494564:39494565:+_ENSG00000168653_ENST00000372967|hu_hu|hu_hu_hu_mus_True|58_58 (ssRNA)
# RNA: GGGAGUUCUACAGUCCGACGAUCAUGCAUUCGCCUCAUCGUUUUGUACCGAAGCAAGCACUCUUCGAAGUCAUCGAAUUCUAUCUUGCACUCCUUUUUCGCCCGGGUCCCACCGAUCCCGUGUGCACACUCUAUCCACUCUUUCAACAGAGGAUUGAGCAUCA
# B6: chr7:141445308:141445309:+_ENSG00000106028_ENST00000265304|hu_hu|hu_hu_hu_mus_False|68_88 (ssRNA)
# RNA: GGGAGUUCUACAGUCCGACGAUCUAUGAUUGUUGUUGCUUGCCGCCUCACAUUAUUUUUAUCCAUGUAUUCACCAUAGUCCACUUUCCCUUCCACAAAUAUACGAGCCCCCUUUUUCACAUACUGAUAUGCCACAUCUCUGAGCAACAGAGGAUUGAGCAUCA
# B7: 31086706_31086826_1316_CDS_ENSMUSG00000029168_ENSMUST00000114729|mouse|control|control (ssRNA)
# RNA: GGGAGUUCUACAGUCCGACGAUCCAUGAGGUAGGUGGAAGUGUUGGUGUCCAGUCUCAGAGGAGGCACCGUGACAUAGGCGGCUGCAUGCGACCAGUCCUGAUGGUAGUAGUGCAAGCCCGUGAGCGUGGCGUGUGCGUUGGUCAACAGAGGAUUGAGCAUCA
# B8: chr16:29649037:29649038:+_ENSMUSG00000038084_ENSMUST00000160597|mus_mus|motif|central (ssRNA)
# RNA: GGGAGUUCUACAGUCCGACGAUCCACAGUCUACUUCUCCUGGUGAAGAGCUUCAAUGAAAGCAUCAAGCUUUUCUUGAAUUUCUCGGACUUUCUUGAGAUCUUCUGCCAGCUGAACUCGUUUGCCAGUGAGCAAUUUAACCUUCAACAGAGGAUUGAGCAUCA
# B9: chr6:38652254:38652255:-_ENSG00000124767_ENST00000373365|hu_hu|hu_hu_hu_mus_False|68_98 (ssRNA)
# RNA: GGGAGUUCUACAGUCCGACGAUCCGAGAACUUCAUAAUGGGAAAAUCAAGCUUCUGCAGGAGGGUCAUUCCAAGAACCCUCGUAUAAAAAUCCAGGGACUUCUUAGGAUCCUUAAUUCUUAGCAUCGUUUGCUGCAGUAGAAACAACAGAGGAUUGAGCAUCA
# B10: chrX:71549762:71549763:+_ENSMUSG00000019087_ENSMUST00000019231|mus_mus|mus_mus_mus_hu_False|28_108 (ssRNA)
# RNA: GGGAGUUCUACAGUCCGACGAUCAAAGUGUACCACUUCUUAUUGUUAGCACAACAUCACCAGAAAACGAUAACGACAGCCAAGCAGGACAGACAGUUAAGUAGUACUUCCACACCUCCAAACUCAGGGAGCCCUAUAACCUUACAACAGAGGAUUGAGCAUCA
# B11: chr1:93451714:93451715:+_ENSMUSG00000026311_ENSMUST00000027538|mus_hu|FALSE|FALSE (ssRNA)
# RNA: GGGAGUUCUACAGUCCGACGAUCCAACCUCAGCCCCUACAUGUACAUACCCCAUGGCCCGUUACAUUAAUAUGCAACUGAAAAUCCAGAACAGAGAACUUGGGAAAAACAAUAAUAACUUUAGUAUAAGCCUCUCAGCUGACACAACAGAGGAUUGAGCAUCA
# B12: chr2:150438701:150438702:-_ENSG00000168288_ENST00000303319|hu_mus|motif|central (ssRNA)
# RNA: GGGAGUUCUACAGUCCGACGAUCAUCAGAACCUGAAGAUCCUGCAGUUGAAAAGGCUCUUGGAUUGAUGACUCUUUUCACGGAAGAACAAAAUCCUGGGAGAUAGGAAACCAGUCUGGCUCUGUUACAGAGCACAUGGGCCAUCAACAGAGGAUUGAGCAUCA
# B13: chr6:142724167:142724168:+_ENSMUSG00000030282_ENSMUST00000032419|mus_mus|motif|central (ssRNA)
# RNA: GGGAGUUCUACAGUCCGACGAUCCCAGACUCAUUGCUUUACAAUAAAUAAAAUCCCAGCAUCAUUAACACCACACACACGGGUUUGACAGGGCACAAUACAGAGUGGAUUGUUUAUGAGGUCGGAGCAAGACUAGGUCAAUCCCAACAGAGGAUUGAGCAUCA
# B14: chr1:220379288:220379289:-_ENSG00000118873_ENST00000358951|hu_hu|motif|central (ssRNA)
# RNA: GGGAGUUCUACAGUCCGACGAUCUGAUGCUGCAGCUUUUGCUACCUGAUUUCGACAAGCACGAAGAGAUUGAAAAAGGCGGAAUCCAUCAAUAGUCACAAUGGCAGCUGGAUAUAAGAUACUCAACUCUUCAUUCUGCUCAGUCAACAGAGGAUUGAGCAUCA
# B15: chr3:10015032:10015033:+_ENSMUSG00000027533_ENSMUST00000029046|mus_mus|mus_mus_mus_hu_True|1_78 (ssRNA)
# RNA: GGGAGUUCUACAGUCCGACGAUCGUUUUUACCAUCACAAGUGAUGAUACAAUCUGGCUUGGCCAUGGCGCCCAUUUUUCGCAAAGCUAUUCCCACUCCUAGCUCCUUCAUGUAUUCAUCAAAGCCUUUGCUGUCCAUCAGGCGCAACAGAGGAUUGAGCAUCA
# B16: chr6:114281168:114281169:-_ENSG00000196591_ENST00000368632|hu_hu|hu_hu_hu_mus_True|88_108 (ssRNA)
# RNA: GGGAGUUCUACAGUCCGACGAUCUUCCAUUUUUCUGUAUAAACCAUAAUUUAACAGCAAGUUAUGAGUCAUCCGGAUUCUAUGAGGCUUCAUGGGAUGACCCUGGCCAUAAUAAUAAUUGCCAAUAUCACCAUCAUAGUAGUACAACAGAGGAUUGAGCAUCA
# B17: chr8:98289279:98289280:-_ENSG00000180543_ENST00000322128|hu_mus|FALSE|FALSE (ssRNA)
# RNA: GGGAGUUCUACAGUCCGACGAUCCUCCAGUCUGUUCAAAUAGCUCAAUACCUCCUUAUCUUUGGUAUUCAGAAAAGCUGACAGCUGGGGAUGGUUCUGAAAAGCUUGCCCCCAGAAGCCCGGAAUGCUCUGGAUGAGGAGGUUCAACAGAGGAUUGAGCAUCA
# B18: chr7:141450121:141450122:+_ENSG00000106028_ENST00000265304|hu_mus|hu_hu_hu_mus_True|28_108 (ssRNA)
# RNA: GGGAGUUCUACAGUCCGACGAUCUCAUCCUUUCUACGCCUUUUCUUUUGUCUGGUCACUCAGAAAUAUAAUGUUAUCAGCUAUGAUUGUUGUUGCUUGCCGCCUCACAUUAUUUUUAUCCAUGUACUCGCCAUAGUCCACUUUCAACAGAGGAUUGAGCAUCA
# B19: 87826391_87826511_3391_3pUTR_ENSG00000008277_ENST00000398209|human|control|control (ssRNA)
# RNA: GGGAGUUCUACAGUCCGACGAUCUGAUUGUGACGGAAUUUUUAGGCAUUUGGCAAAAUACACUUGUGUGUAACAGCUGCAUUUUUUUAAAAUUUUAAAAAUGUUACAUAUAUACAAUUGUCCUUGUAUGCUAAUAUAAAUAUGCAACAGAGGAUUGAGCAUCA
# B20: 9430138_9430258_10655_3pUTR_ENSMUSG00000040209_ENSMUST00000041124|mouse|control|control (ssRNA)
# RNA: GGGAGUUCUACAGUCCGACGAUCCAUCUGCUCAGACAGAGAACGGCUUUCUCUUGCAGGGAGGGUAGCCACUCACUGAGCAGAAUGAGUGUCUAGAGGGAAGCAUCCAUGUACUGGGGUGUUGACUUCAGAGCAAGCAUUCAGCAACAGAGGAUUGAGCAUCA
# B21: 71835330_71835548_1477_CDS_ENSMUSG00000063884_ENSMUST00000082094|mouse|control|control (ssRNA)
# RNA: GGGAGUUCUACAGUCCGACGAUCUCUAUUGGCCACAUCCAAUGCUUGAAGAAGACCUAUGAAUAUUUGGUAGUGGGGAAGGAACACUGAAGGUAUUAGGUCCUUAUACCACUUCAAGGUGACAUCAAUUUGUUCCAGUGAACACAACAGAGGAUUGAGCAUCA
# B22: chr1:244855233:244855234:+_ENSG00000121644_ENST00000302550|hu_mus|hu_hu_hu_mus_True|38_88 (ssRNA)
# RNA: GGGAGUUCUACAGUCCGACGAUCCAUCAGAUGGUAGGCGUUGCCCUUGUAUUCUUUCCCCAGUUCUUCUACAAUUUUCUCUAUAUCAUCUUCUAGAAAGUCCGUGCUUCCUAGAACAACAGCUUCUUUAAAUUUAAAUGUUUCCAACAGAGGAUUGAGCAUCA
# Target: T1, UNK ZnF1-3
# Assay: nsRBNS (natural sequence RNA bind-n-seq); RBNS binding buffer (assumed for nsRBNS): 25 mM Tris pH 7.5, 150 mM KCl, 3 mM MgCl2, 0.01% Triton X-100, 500 ug/ml BSA, 20 U/ml SUPERase-In, 4 C; UNK is unkempt and MSI1 is Musashi-1; names of the RNAs are library labels; protein concentration not given here; high values mean tight binding
row,Binder,binding signal [enrichment R]
1,B1,0.873
2,B2,0.82
3,B3,0.627
4,B4,0.999
5,B5,0.603
6,B6,0.773
7,B7,1.31
8,B8,0.708
9,B9,0.858
10,B10,1.47
11,B11,2.07
12,B12,1.12
13,B13,1.8
14,B14,1.25
15,B15,0.676
16,B16,0.998
17,B17,0.401
18,B18,0.42
19,B19,2.3
20,B20,1.06
21,B21,1.2
22,B22,1.17
